According to PubChem BioAssay AID1347165 (National Center for Advancing Translational Sciences (NCATS), 2019):
Screen size: about 220,000 compounds; about 5,700 (2.6%) were called active. The inconclusive results got no clear call from the source; some entries with a clear call stand among them for comparison. Calls come from the whole dose curve; as a rule, active = well fitted inhibition curve with a large enough effect; inconclusive = small, poorly fitted or top-dose-only effect; inactive = no such curve, though single readings can be large or run the other way. Where the call is inconclusive, the potency comes from a doubtful curve fit.

target: Lysine-specific demethylase 5B (Homo sapiens) (UniProt Q9UGL1); assay: Primary screen for KDM5B Histone Demethylases FDH-coupled qHTS; settings: FDH-coupled NADH fluorescence (FDH is formaldehyde dehydrogenase); activity change, negative = inhibition: at 57.7 µM (top of the series) unless noted; note: nearly all actives have a fitted effect of over 70% in size; for activity change, negative = inhibition: 0% is about no effect
Sequence of UniProt Q9UGL1 (Q9UGL1 whole entry, looked up): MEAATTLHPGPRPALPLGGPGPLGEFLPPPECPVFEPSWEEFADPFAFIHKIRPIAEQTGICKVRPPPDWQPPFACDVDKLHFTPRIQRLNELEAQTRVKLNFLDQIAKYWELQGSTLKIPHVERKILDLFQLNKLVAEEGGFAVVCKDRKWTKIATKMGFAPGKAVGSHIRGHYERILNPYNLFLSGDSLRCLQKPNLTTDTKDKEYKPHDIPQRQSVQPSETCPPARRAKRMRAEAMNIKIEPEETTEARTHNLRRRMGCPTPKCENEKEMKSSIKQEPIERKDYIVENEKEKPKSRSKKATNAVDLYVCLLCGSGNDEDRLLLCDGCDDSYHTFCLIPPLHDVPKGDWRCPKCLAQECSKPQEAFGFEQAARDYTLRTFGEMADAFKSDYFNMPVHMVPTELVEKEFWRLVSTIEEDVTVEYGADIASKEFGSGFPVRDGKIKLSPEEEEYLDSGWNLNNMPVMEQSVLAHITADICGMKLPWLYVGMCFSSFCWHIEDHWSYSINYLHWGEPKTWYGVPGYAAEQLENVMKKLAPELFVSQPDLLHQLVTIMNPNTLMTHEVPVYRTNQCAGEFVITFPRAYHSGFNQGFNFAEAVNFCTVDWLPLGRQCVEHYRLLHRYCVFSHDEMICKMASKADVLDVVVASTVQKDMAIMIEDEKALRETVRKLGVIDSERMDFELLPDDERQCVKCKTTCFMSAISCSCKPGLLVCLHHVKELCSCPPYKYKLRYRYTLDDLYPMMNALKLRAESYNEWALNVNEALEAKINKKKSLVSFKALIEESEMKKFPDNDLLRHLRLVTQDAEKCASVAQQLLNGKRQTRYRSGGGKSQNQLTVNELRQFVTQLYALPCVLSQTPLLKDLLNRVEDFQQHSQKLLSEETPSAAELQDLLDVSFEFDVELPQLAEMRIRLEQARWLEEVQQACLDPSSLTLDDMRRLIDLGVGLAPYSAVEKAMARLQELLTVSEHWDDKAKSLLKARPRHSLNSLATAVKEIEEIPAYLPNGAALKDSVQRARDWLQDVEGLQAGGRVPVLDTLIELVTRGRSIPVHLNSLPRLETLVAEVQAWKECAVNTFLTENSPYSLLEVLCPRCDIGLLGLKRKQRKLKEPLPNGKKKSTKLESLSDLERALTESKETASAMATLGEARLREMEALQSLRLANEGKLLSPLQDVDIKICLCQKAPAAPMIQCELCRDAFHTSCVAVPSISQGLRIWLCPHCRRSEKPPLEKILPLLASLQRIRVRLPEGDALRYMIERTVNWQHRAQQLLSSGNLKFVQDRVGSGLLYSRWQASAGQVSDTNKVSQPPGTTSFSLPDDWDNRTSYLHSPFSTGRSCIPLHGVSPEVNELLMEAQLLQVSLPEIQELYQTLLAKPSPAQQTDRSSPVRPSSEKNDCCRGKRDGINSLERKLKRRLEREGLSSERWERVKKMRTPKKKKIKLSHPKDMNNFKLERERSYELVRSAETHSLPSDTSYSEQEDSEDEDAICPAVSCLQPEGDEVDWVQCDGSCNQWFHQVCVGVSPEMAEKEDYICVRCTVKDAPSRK
Procedure, shortened: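 KDM5BΔAP (200 nM final) in 50 mM HEPES pH 7.5, 0.01% Tween-20 was preincubated 10 min at RT with compound over a concentration range. Substrate mix (H3K4me3 12.5 µM, α-KG 25 µM, Fe²⁺, ascorbate, NAD⁺, FDH) was added, and NADH fluorescence change over 30 min gave dose-response curves.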
Potency is the fitted concentration of half-maximal effect; tags give direction and shape of the fitted curve.

**Q.** How did the Potency turn out when CC(C)c1cc(=O)oc2cc(OCC(=O)NCCc3ccc(F)cc3)ccc12 was run?
**A.** inconclusive: 8.91 µM [inhibitor, full curve, poor fit]

**Q.** For CCN(CC)S(=O)(=O)c1ccc2nc(N)sc2c1, which “activity change, negative = inhibition” value is on record?
**A.** inactive: -12.2%

**Q.** How did the Potency turn out when CCCN(C)c1nccnc1OC1CCN(C(=O)C2CCCCC2)C1 (configuration not stated) was run?
**A.** inconclusive: 39.8 µM [inhibitor, partial curve, poor fit]

**Q.** With CCOc1ccc(CCNC(=O)c2oc(=O)c3ccccc3c2-c2ccc(C)cc2)cc1OCC as the compound, how does the Potency read?
**A.** inconclusive: 25.1 µM [inhibitor, partial curve, poor fit]

**Q.** Which Potency does the source give for CCOC(=O)c1cnc2c(C)cc(C)cc2c1NCCN(C)C here?
**A.** inconclusive: 31.6 µM [inhibitor, single point]

**Q.** How did the Potency turn out when COc1ccc(/C=N/N(c2ccccc2)c2ccccc2)cc1O was run?
**A.** inconclusive: 25.1 µM [inhibitor, single point]

**Q.** How did the Potency turn out when CC(C)(C)c1ccc(C(=O)NCCc2csc(-c3ccc(Cl)cc3)n2)cc1 was run?
**A.** inconclusive: 25.1 µM [inhibitor, partial curve, poor fit]

**Q.** Cc1nn(C)cc1CN(C)C(=O)c1cc(-c2ccccc2)nc2ccc(Br)cc12 was tested. Which Potency did it give?
**A.** inconclusive: 25.1 µM [inhibitor, partial curve, poor fit]

**Q.** COCCNC(=O)c1cnc2c(c1)N(Cc1ccccc1)CCC2 was tested. Which Potency did it give?
**A.** active: 35.5 µM

**Q.** With Cc1cc(NCc2ccccn2)n2nc(C)c(-c3ccccc3Cl)c2n1 as the compound, how does the Potency read?
**A.** inconclusive: 28.2 µM [inhibitor, partial curve, poor fit]

**Q.** With C/C(=C/C(=O)O)C(=O)Nc1ccc(N2CCOCC2)cc1 as the compound, how does the Potency read?
**A.** inconclusive: 5.62 µM [inhibitor, full curve, poor fit]

**Q.** COc1ccccc1-c1ccnc(N[C@H]2CO[C@H]3[C@@H]2OC[C@@H]3NS(=O)(=O)c2cccc3cccnc23)n1 was tested. Which Potency did it give?
**A.** inconclusive: 25.1 µM [inhibitor, partial curve, poor fit]

**Q.** Which “activity change, negative = inhibition” value does the source give for CN(Cc1ccccc1)S(=O)(=O)c1cccc(Br)c1 here?
**A.** inactive: -7.91%

**Q.** With CCC(=O)N1N=C(c2c(-c3ccccc3)c3cc(Cl)ccc3n(C)c2=O)CC1c1ccco1 (configuration not stated) as the compound, how does the Potency read?
**A.** inconclusive: 25.1 µM [inhibitor, single point]

**Q.** For COc1ccc(-c2cc3ccc(OC(=O)C(C)(C)C)cc3oc2=O)cc1OC, which Potency is on record?
**A.** inconclusive: 1.78 µM [inhibitor, full curve, poor fit]

**Q.** For CC(C)CCC1(CCNCc2ccc(OC(C)C)cc2)CCOC(C)(C)C1 (configuration not stated), which “activity change, negative = inhibition” value is on record?
**A.** inactive: 15%

**Q.** For O=C(NCC1CC1)c1cccc(OC2CN(CC3CC=CCC3)C2)c1 (configuration not stated), which “activity change, negative = inhibition” value is on record?
**A.** inactive: -10.9%

**Q.** Which “activity change, negative = inhibition” value does the source give for CC1Cc2nc(SCC(=O)N3CCCC3)n(-c3ccccc3)c(=O)c2S1 (configuration not stated) here?
**A.** inactive: 11.2%

**Q.** How did the “activity change, negative = inhibition” value turn out when Cc1ccc(NS(=O)(=O)c2cc(-c3ccc4nnc(C)n4n3)ccc2C)cc1 was run?
**A.** inactive: 10.6%

**Q.** COc1ccc(C(=O)NCC2(COc3cccnc3)C[C@@H](O)[C@@H](O)C2)cc1 (some centres not stated) was tested. Which “activity change, negative = inhibition” value did it give?
**A.** inactive: -37.1% [at 86.2 µM]

**Q.** How did the “activity change, negative = inhibition” value turn out when O=C1COc2ccc(Oc3ccccc3)nc2CN1CCOc1ccccc1 was run?
**A.** inactive: -4.64% [at 86.2 µM]

**Q.** Which “activity change, negative = inhibition” value does the source give for O=C(Nc1c(-c2ccccc2)nc2sccn12)c1cccc(S(=O)(=O)N2CCCC2)c1 here?
**A.** inactive: -0.47%

**Q.** With CCOC(=O)C(C)Sc1ccc2nnc(CCNS(=O)(=O)c3ccc(C)cc3)n2n1 (configuration not stated) as the compound, how does the Potency read?
**A.** inconclusive: 31.6 µM [inhibitor, partial curve, poor fit]

**Q.** Cc1cc2cc(-c3c(C)noc3C)nc(-c3ccccc3)c2o1 was tested. Which Potency did it give?
**A.** inconclusive: 31.6 µM [inhibitor, single point]

**Q.** How did the Potency turn out when CC(C)CNC(=O)CCC[C@@H]1[C@H]2CCCN3CCC[C@@H](CN1C(=O)c1cccnc1)[C@@H]23 was run?
**A.** inconclusive: 22.4 µM [inhibitor, partial curve, poor fit]

**Q.** Which Potency does the source give for N#Cc1c(C(F)(F)F)cc(-c2cccs2)nc1SCc1ccc(F)cc1 here?
**A.** inconclusive: 25.1 µM [inhibitor, partial curve, poor fit]

**Q.** COc1ccc(-c2nc(C(C)C)nc3c2CCN(C(=O)c2cccc(OC)c2)CC3)cc1 was tested. Which Potency did it give?
**A.** inconclusive: 35.5 µM [inhibitor, single point]

**Q.** With COC(=O)c1cc2oc(C)cc2n1CC(=O)Nc1ccc(C(C)C)cc1 as the compound, how does the Potency read?
**A.** inconclusive: 35.5 µM [inhibitor, single point]

**Q.** For CN(Cc1ccsc1)C(=O)c1ccc(C#N)cc1, which “activity change, negative = inhibition” value is on record?
**A.** inactive: 23.5%

**Q.** With CC(c1nnc(-c2cccc(Cl)c2)o1)N1CCN(c2cnn(-c3ccccc3)c(=O)c2Cl)CC1 (configuration not stated) as the compound, how does the “activity change, negative = inhibition” value read?
**A.** inactive: 0.211%

**Q.** For O=C1Nc2ccccc2CC12CCN(Cc1ccc(F)cc1)CC2, which Potency is on record?
**A.** inconclusive: 89.1 µM [inhibitor, single point]

**Q.** For CC(C)NC(=O)Cn1ccc2cc(Cl)ccc21, which “activity change, negative = inhibition” value is on record?
**A.** inactive: 3.74%

**Q.** Cc1ccc(CNCc2ccccc2Cl)s1 was tested. Which Potency did it give?
**A.** inconclusive: 15.8 µM [inhibitor, partial curve, poor fit]

**Q.** With CC(C)Cc1nc2nccc(-c3ccncc3)n2n1 as the compound, how does the Potency read?
**A.** active: 28.2 µM

**Q.** Which Potency does the source give for O=C(NCCCN1CCOCC1)c1ccc(-c2ccc(N3CCCCCC3)nc2)cc1 here?
**A.** active: 25.1 µM

**Q.** How did the Potency turn out when Cc1ccccc1-n1nc(C)c(CCC(=O)NCC(C)C)c1Oc1cccc(F)c1 was run?
**A.** active: 22.4 µM

**Q.** How did the “activity change, negative = inhibition” value turn out when O=C(c1ccccc1F)N1CCC2(CC1)NC(=O)N(Cc1ccc(F)cc1)C2=O was run?
**A.** inactive: -9.64%

**Q.** How did the Potency turn out when COCc1cc(C)nc2c1C(=O)NC(c1ccc(F)cc1)N2Cc1ccccc1 (configuration not stated) was run?
**A.** inconclusive: 15.8 µM [inhibitor, partial curve, poor fit]

**Q.** With CN(C)[S+](=O)([O-])c1ccc2c(c1)OCCN(Cc1ccsc1)C2 as the compound, how does the “activity change, negative = inhibition” value read?
**A.** inactive: 2.27% [at 86.2 µM]

**Q.** Which Potency does the source give for Cc1cc(OCC(=O)NC2CC2)c2c(C)cc(=O)oc2c1 here?
**A.** inconclusive: 20 µM [inhibitor, partial curve, poor fit]

**Q.** For COc1cc(=O)n2c(c1C(=O)Nc1ccc(Br)cc1)CCCC2, which “activity change, negative = inhibition” value is on record?
**A.** inactive: 2.49%

**Q.** Cc1noc(-c2ccn3c(CNC(=O)c4ccc(C)c(C)c4)nnc3c2)n1 was tested. Which Potency did it give?
**A.** inconclusive: 6.31 µM [inhibitor, partial curve, poor fit]

**Q.** For Cc1ccccc1/C=C/C(=O)NC1CC1, which “activity change, negative = inhibition” value is on record?
**A.** inactive: 7.65%

**Q.** CN1CCN(c2ccc(NC(=O)CCc3ncc(-c4ccc(Cl)cc4)o3)cc2)CC1 was tested. Which “activity change, negative = inhibition” value did it give?
**A.** inactive: 11.9%

**Q.** For CC1(COCC2CC2)COc2ccc(C(=O)NCc3ccncc3)cc2N1 (configuration not stated), which Potency is on record?
**A.** inconclusive: 39.8 µM [inhibitor, partial curve, poor fit]

**Q.** How did the Potency turn out when Cc1ccc(-c2cc(C(=O)OCC(N)=O)c3ccccc3n2)cc1 was run?
**A.** inconclusive: 39.8 µM [inhibitor, single point]

**Q.** Which Potency does the source give for O=C(OCc1ccc(F)cc1Cl)c1ccc(C2Nc3ccccc3S(=O)(=O)N2)cc1 (configuration not stated) here?
**A.** inconclusive: 39.8 µM [inhibitor, single point]

**Q.** How did the Potency turn out when COc1ccc(C(=O)Nc2ccc(N(C)Cc3ccccc3)c(C(=O)O)c2)cc1 was run?
**A.** inconclusive: 35.5 µM [inhibitor, single point]

**Q.** With CCOC(=O)Cn1c(=O)n(CC2CCCO2)c2nc(-c3ccccc3)nc(C(N)=O)c21 (configuration not stated) as the compound, how does the Potency read?
**A.** inconclusive: 3.98 µM [inhibitor, full curve, poor fit]

**Q.** Which Potency does the source give for CC1=NN(C(N)=S)C(=O)C1N=Nc1c(C)n(C)n(-c2ccccc2)c1=O (configuration not stated) here?
**A.** inconclusive: 17.8 µM [inhibitor, partial curve, poor fit]

**Q.** For CC(=O)NCCC(=O)N1Cc2ccccc2CC2(CCN(CC3CCNC3)C2)C1 (configuration not stated), which Potency is on record?
**A.** inconclusive: 89.1 µM [inhibitor, partial curve, poor fit]

**Q.** How did the Potency turn out when Cc1oc(-c2ccccc2Cl)nc1CS(=O)(=O)CC(=O)NCc1ccc(F)cc1 was run?
**A.** inconclusive: 25.1 µM [inhibitor, partial curve, poor fit]

**Q.** With COCCN1C(=O)CC[C@]2(C(=O)NCc3ccccc3Cl)CCCC[C@@H]12 as the compound, how does the “activity change, negative = inhibition” value read?
**A.** inactive: 15%

**Q.** With O=C(COc1ccccc1)c1ccc2c(c1)N(CCCC(=O)N1CCCC1)C(=O)CO2 as the compound, how does the “activity change, negative = inhibition” value read?
**A.** inactive: -19.2%

**Q.** For Cc1cc(C(=O)OC(C)C(=O)C23CC4CC(CC(C4)C2)C3)c(C)o1 (configuration not stated), which “activity change, negative = inhibition” value is on record?
**A.** inactive: -12.4%

**Q.** Cc1c(CC(=O)NCc2cccc(Cl)c2)c(=O)oc2c(C)c(O)ccc12 was tested. Which Potency did it give?
**A.** inconclusive: 1.78 µM [inhibitor, partial curve, poor fit]

**Q.** For O=C(CSc1nccn2nc(-c3cccc4ccccc34)cc12)NCCc1ccccc1, which Potency is on record?
**A.** inconclusive: 31.6 µM [inhibitor, partial curve, poor fit]

**Q.** How did the Potency turn out when Cc1cc(Nc2cccc(Cl)c2)nc2ccc(NC(=O)c3cncc(Br)c3)cc12 was run?
**A.** inconclusive: 17.8 µM [inhibitor, partial curve, poor fit]

**Q.** With O=C(CC1N=C2c3ccccc3N=C(SCc3ccccc3Cl)N2C1=O)NCCc1ccccc1 (configuration not stated) as the compound, how does the Potency read?
**A.** inconclusive: 28.2 µM [inhibitor, partial curve, poor fit]

**Q.** Which Potency does the source give for CCOc1ccc(-n2nc3ccc(NC(=O)c4ccc(OC)c(Cl)c4)cc3n2)cc1 here?
**A.** inconclusive: 28.2 µM [inhibitor, single point]

**Q.** With CCCn1c(NC(=O)c2oc3ccccc3c2COC)nc2ccccc21 as the compound, how does the Potency read?
**A.** inconclusive: 20 µM [inhibitor, single point]

**Q.** With Cc1ccc(C)c(C(=O)NCc2nnc3c(-c4nc(C5CC5)no4)cccn23)c1 as the compound, how does the Potency read?
**A.** active: 25.1 µM

**Q.** With Oc1ccc(-c2nc(-c3cc4ccccc4o3)cs2)cc1 as the compound, how does the Potency read?
**A.** inconclusive: 20 µM [inhibitor, partial curve, poor fit]

**Q.** For Cc1cccc(NC(=O)CCn2cnc3ccccc3c2=O)c1, which activity change, negative = inhibition is on record?
**A.** inconclusive: -30.9% [inhibitor]

**Q.** With CCOC(=O)c1noc2ncn(CC(=O)Nc3cccc(C(F)(F)F)c3)c(=O)c12 as the compound, how does the Potency read?
**A.** inconclusive: 15.8 µM [inhibitor, partial curve, poor fit]

**Q.** With Cc1nc(SCC(=O)Nc2cc(C(N)=O)cc(C(N)=O)c2)c2c(C)c(C)sc2n1 as the compound, how does the Potency read?
**A.** inconclusive: 39.8 µM [inhibitor, single point]

**Q.** Which “activity change, negative = inhibition” value does the source give for CCOc1ccc(NC(=O)c2ccc(C#Cc3ccccc3)cc2)cc1 here?
**A.** inactive: 3.8%
